{
  "source": "the supplement of paper PMC11283458",
  "note": "The list shows a part of the results. Single values are uncertain, as repeats are few or missing.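 Further: exons read include endogenous Mef2d, Mast2, Ergic3 and Trappc9 microexons plus the longer neural-regulated Zdhhc20, Mgrn1 and Asph cassette exons, alongside the reporter microexon.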",
  "data": [
    {"tested_on": "Mast2 alternative exon (endogenous)", "assay": "delta PSI of alternative exon relative to 0.4% DMSO control (RT-PCR) (percentage points); higher = more exon inclusion", "conditions": "concentration: not stated (optimised per compound); Neuro-2a", "experimental": "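Reads PSI of the Mef2d reporter microexon and of endogenous mouse neural alternative exons. dPSI is relative to the 0.4% DMSO control, single replicate.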", "values": [
      {"smiles": "COc1ccc(/C=C/C=C2C(=O)NC(=O)NC2=O)cc1", "delta PSI of alternative exon": -1.09},
      {"smiles": "O=C1NC(=O)C(=CC=Cc2ccccc2)C(=O)N1", "delta PSI of alternative exon": -0.612},
      {"smiles": "CC(=O)OC(C)(C)C=CC(=O)[C@](C)(O)[C@H]1[C@H](O)C[C@@]2(C)[C@@H]3CC=C4[C@@H](CC[C@H](O)C4(C)C)[C@]3(CO)C(=O)C[C@]12C", "delta PSI of alternative exon": 20.8},
      {"smiles": "Cc1n[nH]c2ccc(-c3cncc(OC[C@@H](N)Cc4c[nH]c5ccccc45)c3)cc12", "delta PSI of alternative exon": 35.2}
    ]}
  ]
}
